B1: chr10:119167843:119167906:-|3pUTR|ENSG00000165672|msi1_unk|FALSE|overlapping (ssRNA)
RNA: GGGAGUUCUACAGUCCGACGAUCUGCAUGAUCCCUCAUCCCUGAAAUUGAGUUUAUGUAGUCAUUUUACUUAUUUUAUUCAUUAGCUAACUUUGUCUAUGUAUAUUUCUAGAUAUUGAUUAGUGUAAUCGAUUAUAAAGGAUACAACAGAGGAUUGAGCAUCA
B2: chr1:112701350:112701454:-|3pUTR|ENSG00000155366|unk|FALSE|unique (ssRNA)
RNA: GGGAGUUCUACAGUCCGACGAUCGGCUCCAUGCUGAAGGCUCCCAUUUUCAGUUCCCUCCUGCCCAGGACUGCAUUGUUUUCUAGCCCCGAGGUGGUGGCACGGGCCCUCCCUCCCAGCGCUCUGGGAGCCACGCCUAUGCCCCAACAGAGGAUUGAGCAUCA
B3: chr1:154584646:154584747:-|3pUTR|ENSG00000160710|unk|FALSE|unique (ssRNA)
RNA: GGGAGUUCUACAGUCCGACGAUCAUGCUCCAGUGACAGAUGGAUUAGGGUGUGUCAUACUAGGGUGUGAGAGAGGUAGGUCGUAGCAUUCCUCAUCACAUGGUCAGGGGAUUUUUUUUUCUCCUUUUUUUUUCUUUUUAAGCCCAACAGAGGAUUGAGCAUCA
B4: ENSG00000110756:stop:overlap|stop_codon|ENSG00000110756|stop_codon|NA|stop_codon (ssRNA)
RNA: GGGAGUUCUACAGUCCGACGAUCGGGCCUUGAUACAAAGCAUGCUUGAAAAAUGCGAUCGGUUUCUCUGGUCCCAGCAGGCCUAGUGGGAGAAGAUUCAGCAGGAUGUCAUGACAUUUUGAGAAAAACUAAAUCAUGCUCCUGCAACAGAGGAUUGAGCAUCA
B5: chr16:88863332:88863755:-|three_prime_utr|ENSG00000205022|control|control|control (ssRNA)
RNA: GGGAGUUCUACAGUCCGACGAUCCAGAGGAGAGGGGUGUCCAGAGCAGCCACUGGCCCCCUCUUGGCGGGGGGAUGGCCCAGUAGGGCCUUGUAUGGUGGUCCAGACCCAAGGCCACAGCCACGAGUCACAGCCACGGCCCGGCAACAGAGGAUUGAGCAUCA
B6: chr20:50583650:50583751:+|3pUTR|ENSG00000196396|msi1|FALSE|unique (ssRNA)
RNA: GGGAGUUCUACAGUCCGACGAUCUUCCUAAGCCUGUUGCUGAAGUCAUUGUCGCUCAGCAAUAGGGUGCAGUUUUCCAGGAAUAGGCAUUUGCCUAAUUCCUGGCAUGACACUCUAGUGACUUCCUGGUGAGGCCCAGCCUGUCAACAGAGGAUUGAGCAUCA
B7: chr2:15946816:15946917:+|3pUTR|ENSG00000134323|unk|total|mutant (ssRNA)
RNA: GGGAGUUCUACAGUCCGACGAUCUAUAUGCCUUUUUCCCCGCCUGUUUCUUCCUGUUAAUGUAUUUGUUCAUGUUUGGUGCACCGAACUGGGUAAAUGCAAAGUUCUGUGUUUAAUUUCUUCAAAAUGUAUAUAUUCCGUGCUCAACAGAGGAUUGAGCAUCA
B8: ENSG00000197555:stop:overlap|stop_codon|ENSG00000197555|stop_codon|NA|stop_codon (ssRNA)
RNA: GGGAGUUCUACAGUCCGACGAUCACGCCUCGGACAAGCUGAAGAAGUUCACAGAAUGGGUCUUCAACACCAUAGACAUGAGCUAGGGAAGGCUGAGGAGGACAGGAGAAGGGCCCAGACACUCCCUCCAGUGAGUGUCCUGCACAACAGAGGAUUGAGCAUCA
B9: chr4:183512276:183512377:+|3pUTR|ENSG00000168556|unk|total|mutant (ssRNA)
RNA: GGGAGUUCUACAGUCCGACGAUCCUGCUUGUUUUGGGAAAAAAAAAUGCUUUUUUUCUCUUCCCGCUCUCCUGUGUGACUUUCCGGCAUGUCAUUUCACCUUGUCUGGGUGUCAGGUCAUUCACCUGUAAAAUGAGUUGGCUUCAACAGAGGAUUGAGCAUCA
B10: chr12:131960804:131960905:+|CDS|ENSG00000183495|unk|FALSE|bound_elsewhere (ssRNA)
RNA: GGGAGUUCUACAGUCCGACGAUCCCCUCAGCAAGCCCGUCGGCACCCCAGUCUCCCAGUUAUCAAAUACAGCAGCUGAUGAAUAGGAGCCCUGCAACCGGGCAGAACGUGAACAUCACCCUGCAGAGCGUGGGCCCUGUCGUCCAACAGAGGAUUGAGCAUCA
B11: ENSG00000111530:stop:overlap|stop_codon|ENSG00000111530|stop_codon|NA|stop_codon (ssRNA)
RNA: GGGAGUUCUACAGUCCGACGAUCUCUUUGAAAGUAUCCAGAAAGAUUCAUCAUCUACUAACUUGGAAUCAAUGGACACUAGUUAGAUGUUUGUUCACCAUGGGGACCAUUACAUAUGACCAUACAAUGCACUGAAUUGACAGGCAACAGAGGAUUGAGCAUCA
B12: chr3:57561443:57561544:+|3pUTR|ENSG00000174840|unk|FALSE|unique (ssRNA)
RNA: GGGAGUUCUACAGUCCGACGAUCGAAAUUUAAAUAUGAAGCCAAACUUUUUAAAAUUAGAAACUACAAAUGGUUAUACUGAUUAGUGUCUAGCCUAGAGUGGUAACCAUGCUUUACUAAUUCAGUUAUGAAAUACAUUAUUUACAACAGAGGAUUGAGCAUCA
B13: ENSG00000198589:be:win_8701|3pUTR|ENSG00000198589|bound_else_gene|NA|bound_elsewhere_windowed (ssRNA)
RNA: GGGAGUUCUACAGUCCGACGAUCUGUAGUCUUUGCUUGACUUUUUUGGGGGGGAUUAGCAAAGCAGAAAACUGGCUGCUGGGUUCUGUAGUUUUAAAAAAUCUAUAUUUUUAGUCAUAAUGAGAAGUCUAUUUUCACCAAUUACAACAGAGGAUUGAGCAUCA
B14: chr11:2928445:2928542:-|3pUTR|ENSG00000181649|msi1_unk|FALSE|overlapping (ssRNA)
RNA: GGGAGUUCUACAGUCCGACGAUCAUUGGACUAUCUAAUAUCUAUGUAUUUAUUUCGCUGGUUCUUUGUAGUCACAUAUUUUAUAGUCUUAAUAUCUUGUUUUUGCAUCACUGUGCCCAUUGCAAAUAAAUCACUUGGCCAGUUCAACAGAGGAUUGAGCAUCA
B15: chr10:71816509:71816622:-|3pUTR|ENSG00000197746|msi1_unk|total|mutant (ssRNA)
RNA: GGGAGUUCUACAGUCCGACGAUCUGCCUACAUGUCCCUGGCUGUUGAGGCGCUGCUUCAGCCUGCACCCCUCCCUUGUCUCACCGAUGCUCCUUUUGACCUUUUCAAAUAAAUAUGGAUGGCGAGCUCCCCGGCCUCUGGCUUCAACAGAGGAUUGAGCAUCA
B16: chr17:18209558:18209659:+|3pUTR|ENSG00000091542|msi1|FALSE|unique (ssRNA)
RNA: GGGAGUUCUACAGUCCGACGAUCGGUAGCUUCUAUCCACUCAGAUCCUGGAAGGCAGCAAGGUUUUGUGGAUCUAGAUUCAUUAGGAAUGUCUUCUUGUCAGCCAGGCCAGGACCCGGGCUUGCCAAGAGCAGAGGCCCUCCCCAACAGAGGAUUGAGCAUCA
B17: chr15:41696124:41696239:+|CDS|ENSG00000174197|unk|total|mutant (ssRNA)
RNA: GGGAGUUCUACAGUCCGACGAUCUGCCGCCUCACCGUCCGACCAGAACGGAAGCUUCAAUGUUGUUAUUAAAGAGGAACCUCCCGAUGAUUAUGACUACGAACUUGGUGAGUGCCCAGAAGGGGUCACUGUGAAACAGGAAGACAACAGAGGAUUGAGCAUCA
B18: chr5:171410733:171410822:+|3pUTR|ENSG00000181163|msi1_unk|FALSE|overlapping (ssRNA)
RNA: GGGAGUUCUACAGUCCGACGAUCGUUUUUAAAGAUGGAACUCCACCCUUUGCUUGGUUUUAAGUAUGUAUGGAAUGUUAUGAUAGGACAUAGUAGUAGCGGUGGUCAGACAUGGAAAUGGUGGGGAGACAAAAAUAUACAUGUCAACAGAGGAUUGAGCAUCA
B19: ENSG00000257103:stop:overlap|stop_codon|ENSG00000257103|stop_codon|NA|stop_codon (ssRNA)
RNA: GGGAGUUCUACAGUCCGACGAUCGUCGUGGGGGCCGGGAGUUUGCGGAUUUUGAAUAUAGGAAAGACAACAAAGUUGCUGCAUAGUCUACAAACAAGUCUCUGAAAAUAGGUGAAUUUCUAGCUCUUCAUGGUCCUGAACAUUCAACAGAGGAUUGAGCAUCA
B20: chr1:113797602:113797710:-|CDS|ENSG00000081019|unk|FALSE|bound_elsewhere (ssRNA)
RNA: GGGAGUUCUACAGUCCGACGAUCUUUAUGACUCACCAGGAACAUUCUAUUCGUAGAAAUUUCUUAAAAACAGGUACUAAAUUUAGCAACUUUAUUCAUGAGGAACACCAGUCCAAUGGUGGUGCUCUUGUCCUUCAUGCUUACCAACAGAGGAUUGAGCAUCA
B21: chr2:189033597:189033698:-|3pUTR|ENSG00000204262|msi1|total|mutant (ssRNA)
RNA: GGGAGUUCUACAGUCCGACGAUCAAGAGUGGGGUAUACCGAGCCACAACACAUGUUUAUUUUGCUUGGCUGCAGUUGAAAAACCGAAAUCCGUGCCCUUUUGUGACCUCUCAUUCCAAGAUUGUCAAUUAAAAAUGAGUUUAACAACAGAGGAUUGAGCAUCA
B22: chr11:43342853:43342954:+|3pUTR|ENSG00000166181|msi1|FALSE|unique (ssRNA)
RNA: GGGAGUUCUACAGUCCGACGAUCCUAGUUCUGCUGAUAAAGAUCAUCAGUUUUGAAAGGUUACUGAUUUUCCUCUUCCCUCUUAGUUUUUUACCCAAUAUAUGGAGAAGAGUAAUGGUCAAUCUUAACAUUUUGUUUUAAUUGCAACAGAGGAUUGAGCAUCA

The list shows a part of the results.

This assay has as its target MSI1 full-length (mouse, UniProt Q61474 1-362). Put plainly: nsRBNS (natural sequence RNA bind-n-seq); RBNS binding buffer (assumed for nsRBNS): 25 mM Tris pH 7.5, 150 mM KCl, 3 mM MgCl2, 0.01% Triton X-100, 500 ug/ml BSA, 20 U/ml SUPERase-In, 4 C; UNK is unkempt and MSI1 is Musashi-1; names of the RNAs are library labels; protein concentration not given here; high values mean tight binding.
Sequence of UniProt Q61474 (Q61474 whole entry): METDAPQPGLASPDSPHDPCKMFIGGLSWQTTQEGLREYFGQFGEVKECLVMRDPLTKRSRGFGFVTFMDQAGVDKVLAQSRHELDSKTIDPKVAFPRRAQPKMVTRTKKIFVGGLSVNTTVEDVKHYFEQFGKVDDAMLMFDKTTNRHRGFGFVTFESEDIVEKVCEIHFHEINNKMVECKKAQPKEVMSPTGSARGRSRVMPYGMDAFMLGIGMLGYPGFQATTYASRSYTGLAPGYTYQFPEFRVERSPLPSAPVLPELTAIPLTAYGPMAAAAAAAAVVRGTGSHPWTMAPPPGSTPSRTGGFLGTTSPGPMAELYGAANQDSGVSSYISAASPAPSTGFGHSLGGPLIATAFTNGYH
With B1, the binding signal came to 1.93 enrichment R.
B2 registered a binding signal of 0.498 enrichment R.
As for B3, the figure is 1.31 enrichment R; as for B4, 0.778 enrichment R; as for B5, 0.416 enrichment R.
As for B6, the figure is 0.237 enrichment R; as for B7, 0.895 enrichment R.
Turning to B8, the binding signal was 0.335 enrichment R.
Regarding B9, the binding signal was 0.259 enrichment R.
As for B10, the figure is 0.593 enrichment R; as for B11, 0.506 enrichment R; as for B12, 12 enrichment R.
As for B13, the figure is 12.4 enrichment R.
As for B14, the figure is 12 enrichment R.
As for B15, the binding signal was found to be 0.627 enrichment R.
Turning to B16, the binding signal worked out at 1.93 enrichment R.
Take B17: the binding signal turned out to be 0.363 enrichment R.
As for B18, the figure is 4.73 enrichment R; as for B19, 0.245 enrichment R.
As for B20, the figure is 0.991 enrichment R.
B21 yielded a binding signal of 0.285 enrichment R.
As for B22, the figure is 4.11 enrichment R.

The values above are taken from paper PMC12136788.
